These results are taken from the RNAGym collection of RNA variant scans (doi:10.7554/elife.90254).

B1: LINE1-full (parent)
chain: UACGUAGGUGGUUUUCCCCUGAUAGUGCUAAGGGGGCCUGGAAGUUUGGACUGGGCAGAGCUCAACACAGCGUGGCAAAGUGGCUGUGGCUAGACUGCCUCUCUGGAUUCCUCGUCACUCAGCAGGGCAUCUCUGAGAGAAAUGCC

The source gives no read counts; variants with many changes may rest on few reads.

Variants of B1 are the subject of this data set. Description: self-cleavage, relative activity (ratio to wild type); higher = more cleavage; in vitro, sequencing; the parent is a self-cleaving ribozyme.
Take A2G C3U G114A U132C: the self-cleavage was 0.68. As for U1C U73A A136G, the self-cleavage turned out to be 1.13. As for U1C U39C C146A, the self-cleavage was 1.09.

Consider A2G A24G A31U U96A, for which the self-cleavage turned out to be 0.21.

Consider U1C U62A U87A U96C U115C, for which the self-cleavage stood at 0. As for A2G G4A A77G U112A, the self-cleavage was determined as 0.78. For A2G U12C G36A G83U U115C A140G the value was 0.68.

For A2G G105U U115C, the self-cleavage was determined as 0.35.

In the case of A2G A6G A107G, the self-cleavage is 0.56.

A2G A78U U119C: the self-cleavage came to 1.02. Take A2G A30G A69U A117G: the self-cleavage was determined as 0.48. As to A2G G54A A67G A117U, the self-cleavage was found to be 0.5.

On to A2G A78G A142G, for which the self-cleavage is 0.33.

With A2G A65G U73A U115A A124U, the self-cleavage is 0.17. Consider A2G A42G U87A, for which the self-cleavage turned out to be 0.19.

On to U1C U23C A92G, for which the self-cleavage was 0.19. Take A2G A77G G80A C110U A136U: the self-cleavage was 1.4. For A2G U9C A31U A43G, the self-cleavage was found to be 1.06. For U1C U15C A78G the value was 0.65; for A2G U12A U26C U96C U119A G126C, 0. For A2G A43G U108C C145U, the self-cleavage worked out at 1.13. Under A2G A78U G105U U143C stands 1.91; under A2G G7U U9A A30G, 1.18; under A2G G8C G53A U62A A78G A117U, 0.08. For A2G U5C A30U U143C, the self-cleavage came to 0.75. Under A2G A22G G32A U47C A78G A142G stands 0.61; under A2G U9C U108C A142U, 0.

Consider A2G G34A U45C A124G A136U, for which the self-cleavage worked out at 0.77. For U1G G21A A22G A64U, the self-cleavage turned out to be 0.49. In the case of A2G G8C A77G, the self-cleavage came to 0.75. For A2C U52C G55C A77U A79U the value was 0.09; for A2G A77U A121U A124U A136G, 1.2; for A2G A69U G106A A138G A142G, 0.15. As for A2G A78U A136G, the self-cleavage was found to be 0.88. For A2C A79G U143A the value was 1.8; for U1C U15A U20A A78U A129U, 0.85. Under A2G A69U A94G stands 0.23; under U1C U46A A50G, 0.84; under A2G A57G U104A U119A, 0.64. Take A2G A43G A69C U130C: the self-cleavage came to 0. For the variant A2G A30G U119C, the self-cleavage amounted to 0.57. For A2G U9C U20C A59G G72U G126A the value was 0.27. For U1G U15A U39A A64G the value was 0.44; for U1C U73C U130C, 0.92; for A2G A94G A117U G137U, 0.

U1C U73A U85A U96A U102C A121G: the self-cleavage came out at 0.05. In the case of A2G A43U U45C U119C, the self-cleavage came out at 0.

For A2G G34C A138G, the self-cleavage stood at 1.25. A2G C51U A78G U85C A121C A136G A142G: the self-cleavage was 0. As for A2G A57G U96C A136U, the self-cleavage worked out at 0.88. Under A2G A121G C131U stands 0.76; under A2G A67G U81C, 0.

Regarding A2G C37G A64U U108A A124U, the self-cleavage worked out at 0.72. Under U1C U26A A57G C76U A77G A136G stands 0.73; under U1C U20C C71A, 0.2; under U1G U39C A77U G86A, 0.07. Under A2G G8C U14C A31U U47C U52A A64G G70A U104A stands 0.47; under U1C U81A A138G, 1.29. For A2G C61U U87A the value was 0.17. Regarding A2C U20C A43G G72A U134A, the self-cleavage came to 0.16. Under U1C U15C U29C G41U A94U stands 0.34. For the variant U1C U52A C61U A129G U132C, the self-cleavage is 0.07.

Regarding A2G G11A U46C A117G A141G U143C, the self-cleavage came out at 1.02.

For the variant A2G A22U A59U, the self-cleavage came to 0.95. Under A2C U47G G72A A94U G97A U100C G126A U132C stands 0. For U1G U45C U119C the value was 0; for U1G A22G U47A C84A U130C, 0.52; for U1C U47A U52C A138G, 1.58. Under A2G A31G A78G U104A stands 1.67; under A2G U12C A43G A140G, 0.35. Turning to A2G U9A U29A G53A A142G, the self-cleavage was determined as 1.07. For A2G C3U A117U, the self-cleavage is 0.38. For U1C U23C G139U the value was 0.75; for A2G G7U U26C G35A G125A A142G, 0.24; for U1C U23C C68U, 0.4. For A2G A77G G122A the value was 0.81; for U1C U26A A43G G74A, 0.41. For U1C U23C A124G the value was 0.82; for A2G A69G A77U A94U A138G, 0.04. In the case of A2G U12C G74A U85C G114A U134C A140G A142G, the self-cleavage stood at 0.28. As to U1C U62A A64G A69G U102C, the self-cleavage is 0. U1C U15C G114C G139A: the self-cleavage turned out to be 1. For A2G U9A U73C G127U, the self-cleavage came to 1.21.
